# Publication PMC9911399, “Two distinct binding modes provide the RNA-binding protein RbFox with extraordinary sequence specificity”
# Residue numbers refer to the chain shown, from its start. The list shows a part of the results.
# T1: RBFOX1 RRM RbFoxmut (Fox-RRM*) (Homo sapiens, UniProt Q9NWB1 109-208, R118D;E147R;N151S;E152T)
# T1 sequence: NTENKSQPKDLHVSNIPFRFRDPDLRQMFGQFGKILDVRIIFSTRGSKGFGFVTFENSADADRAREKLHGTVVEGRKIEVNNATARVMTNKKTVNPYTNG
# B1: CCAUCGA (DNA:RNA)
# RNA: GGGAGACCGGAAUUCAGAUUGUCCCCAUCGAUUAAAUCCCGUCGUAGCCACCA
# DNA 1: CAATCTGAATTCCGGTCTCCC
# DNA 2: TGGTGGCTACGACGGGATT
# B2: CUGAAGA (DNA:RNA)
# RNA: B1 RNA with C26U, A27G, U28A, C29A
# DNA 1: CAATCTGAATTCCGGTCTCCC
# DNA 2: TGGTGGCTACGACGGGATT
# B3: AGGGCAG (DNA:RNA)
# RNA: B1 RNA with C25A, C26G, A27G, U28G, G30A, A31G
# DNA 1: CAATCTGAATTCCGGTCTCCC
# DNA 2: TGGTGGCTACGACGGGATT
# B4: UUUAGCG (DNA:RNA)
# RNA: GGGAGACCGGAAUUCAGAUUGUCCUUUAGCGUUAAAUCCCGUCGUAGCCACCA
# DNA 1: CAATCTGAATTCCGGTCTCCC
# DNA 2: TGGTGGCTACGACGGGATT
# B5: UUGAAAG (DNA:RNA)
# RNA: B4 RNA with U27G, G29A, C30A
# DNA 1: CAATCTGAATTCCGGTCTCCC
# DNA 2: TGGTGGCTACGACGGGATT
# B6: CGGCGGA (DNA:RNA)
# RNA: B1 RNA with C26G, A27G, U28C, C29G
# DNA 1: CAATCTGAATTCCGGTCTCCC
# DNA 2: TGGTGGCTACGACGGGATT
# B7: AAAAUAG (DNA:RNA)
# RNA: B4 RNA with U25A, U26A, U27A, G29U, C30A
# DNA 1: CAATCTGAATTCCGGTCTCCC
# DNA 2: TGGTGGCTACGACGGGATT
# B8: UUGAGCU (DNA:RNA)
# RNA: B4 RNA with U27G, G31U
# DNA 1: CAATCTGAATTCCGGTCTCCC
# DNA 2: TGGTGGCTACGACGGGATT
# B9: GAUGCGC (DNA:RNA)
# RNA: B1 RNA with C25G, C26A, A27U, U28G, A31C
# DNA 1: CAATCTGAATTCCGGTCTCCC
# DNA 2: TGGTGGCTACGACGGGATT
# Target: T1, RBFOX1 RRM RbFoxmut (Fox-RRM*)
# Assay: EMSA; HiTS-Eq, 1 nM pool, 10 min; buffer printed only for the single-RNA assays: 10 mM Tris pH 7.5, 150 mM NaCl, 3.4 mM EDTA, 0.001% NP-40, 30 C
# Details: tags: His6 N-terminal (pET28a); label: 5' 32P
# How it was run: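 Purified RbFox RRM (wild type or mutant) was equilibrated for 10 min in 50 µL with 1 nM of a 5′-radiolabelled pool of RNA with 7 randomized nucleotides, its flanks annealed to DNA oligonucleotides, across increasing protein concentrations. Free RNA was separated by 8% native PAGE, excised, reverse-transcribed, PCR-barcoded and sequenced on an Illumina HiSeq 2500. Relative association constants came from read-count changes of each variant against the control reaction, normalised to the cognate motif.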
row,Binder,binding signal
1,B1,0.0828 KA relative to UGCAUGU
2,B2,0.0948 KA relative to UGCAUGU
3,B3,0.0849 KA relative to UGCAUGU
4,B4,0.129 KA relative to UGCAUGU
5,B5,0.103 KA relative to UGCAUGU
6,B6,0.121 KA relative to UGCAUGU
7,B7,0.115 KA relative to UGCAUGU
8,B8,0.0876 KA relative to UGCAUGU
9,B9,0.114 KA relative to UGCAUGU
